Source: publication PMC8253491
No constants are given. Whether binding was seen depends on the method and setting. Binding seen in cells or lysates may run through a third protein. Some entries that bind do so weakly or less than the wild type. Where a sequence is shown, tags or fusion partners need not be part of it.

T1: FLAG-tagged RhoGDI-3 (human) (UniProt Q99819)
T1 sequence: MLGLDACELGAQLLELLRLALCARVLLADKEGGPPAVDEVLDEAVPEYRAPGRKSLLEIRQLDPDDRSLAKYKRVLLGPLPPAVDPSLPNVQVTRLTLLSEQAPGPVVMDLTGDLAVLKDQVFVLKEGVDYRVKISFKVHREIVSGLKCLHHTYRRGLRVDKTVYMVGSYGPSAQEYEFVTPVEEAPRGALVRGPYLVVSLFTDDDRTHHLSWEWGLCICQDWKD

T2: His-tagged or FLAG-tagged RhoGDI-1 (human) (UniProt P52565)
T2 sequence: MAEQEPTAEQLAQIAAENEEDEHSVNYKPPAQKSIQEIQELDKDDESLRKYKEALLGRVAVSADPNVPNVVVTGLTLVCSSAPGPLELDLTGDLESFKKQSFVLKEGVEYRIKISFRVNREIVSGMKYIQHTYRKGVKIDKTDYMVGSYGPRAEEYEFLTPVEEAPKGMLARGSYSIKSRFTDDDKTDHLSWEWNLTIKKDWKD

T3: His-tagged or FLAG-tagged RhoGDI-2 (human) (UniProt P52566)
T3 sequence: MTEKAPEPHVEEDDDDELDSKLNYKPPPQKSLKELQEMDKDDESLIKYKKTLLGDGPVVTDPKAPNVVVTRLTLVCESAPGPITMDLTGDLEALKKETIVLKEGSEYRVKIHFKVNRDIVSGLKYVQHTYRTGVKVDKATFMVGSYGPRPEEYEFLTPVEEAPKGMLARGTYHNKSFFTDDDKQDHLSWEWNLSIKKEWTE


How the values were obtained:
[1] = molecular target: T1, FLAG-tagged RhoGDI-3 (human); assay: co-IP; FLAG-tagged RhoGDI-3 co-expressed with V5-tagged GTPase in HEK293T; immunoprecipitated from lysate with anti-FLAG antibody cross-linked to magnetic beads; anti-V5 Western blot
[2] = molecular target: T2, His-tagged or FLAG-tagged RhoGDI-1 (human); assay: pull-down + co-IP; His-tagged or FLAG-tagged RhoGDI-1 or RhoGDI-2 co-expressed with V5-tagged atypical GTPase or Miro in HEK293T; precipitated with nickel-coated magnetic beads or with anti-FLAG antibody cross-linked to magnetic beads (not told which in each panel); anti-V5 Western blot
[3] = molecular target: T3, His-tagged or FLAG-tagged RhoGDI-2 (human); assay: as above
[4] = molecular target: His-tagged RhoGDI-2 (human) (UniProt P52566); assay: pull-down; His-tagged RhoGDI co-expressed with V5-tagged GTPase in HEK293T; RhoGDI precipitated from lysate (1% Triton X-100, 150 mM NaCl, pH 7.4) with nickel-coated magnetic beads; anti-V5 Western blot; the paper calls it coimmunoprecipitation
[5] = molecular target: His-tagged RhoGDI-1 (human) (UniProt P52565); assay: as above

binding [1] | binding [2] | binding [3] | binding [4] | binding [5] | Binder
binds | no binding | no binding |  |  | V5-tagged Rnd2 (protein, UniProt P52198 1-227) MEGQSGRCKIVVVGDAECGKTALLQVFAKDAYPGSYVPTVFENYTASFEIDKRRIELNMWDTSGSSYYDNVRPLAYPDSDAVLICFDISRPETLDSVLKKWQGETQEFCPNAKVVLVGCKLDMRTDLATLRELSKQRLIPVTHEQGTVLAKQVGAVSYVECSSRSSERSVRDVFHVATVASLGRGHRQLRRTDSRRGMQRSAQLSGRPDRGNEGEIHKDRAKSCNLM
 | no binding | no binding |  |  | V5-tagged Rnd1 (protein, UniProt Q92730 1-232) MKERRAPQPVVARCKLVLVGDVQCGKTAMLQVLAKDCYPETYVPTVFENYTACLETEEQRVELSLWDTSGSPYYDNVRPLCYSDSDAVLLCFDISRPETVDSALKKWRTEILDYCPSTRVLLIGCKTDLRTDLSTLMELSHQKQAPISYEQGCAIAKQLGAEIYLEGSAFTSEKSIHSIFRTASMLCLNKPSPLPQKSPVRSLSKRLLHLPSRSELISSTFKKEKAKSCSIM
binds | no binding | no binding |  |  | V5-tagged Wrch2/RhoV (protein, UniProt Q96L33 1-236) MPPRELSEAEPPPLRAPTPPPRRRSAPPELGIKCVLVGDGAVGKSSLIVSYTCNGYPARYRPTALDTFSVQVLVDGAPVRIELWDTAGQEDFDRLRSLCYPDTDVFLACFSVVQPSSFQNITEKWLPEIRTHNPQAPVLLVGTQADLRDDVNVLIQLDQGGREGPVPQPQAQGLAEKIRACCYLECSALTQKNLKEVFDSAILSAIEHKARLEKKLNAKGVRTLSRCRWKKFFCFV
binds |  |  | no binding | no binding | V5-tagged RhoD (protein, UniProt O00212 1-210) MTAAQAAGEEAPPGVRSVKVVLVGDGGCGKTSLLMVFADGAFPESYTPTVFERYMVNLQVKGKPVHLHIWDTAGQDDYDRLRPLFYPDASVLLLCFDVTSPNSFDNIFNRWYPEVNHFCKKVPIIVVGCKTDLRKDKSLVNKLRRNGLEPVTYHRGQEMARSVGAVAYLECSARLHDNVHAVFQEAAEVALSSRGRNFWRRITQGFCVVT
binds | no binding | no binding |  |  | V5-tagged RhoH (protein, UniProt Q15669 1-191) MLSSIKCVLVGDSAVGKTSLLVRFTSETFPEAYKPTVYENTGVDVFMDGIQISLGLWDTAGNDAFRSIRPLSYQQADVVLMCYSVANHNSFLNLKNKWIGEIRSNLPCTPVLVVATQTDQREMGPHRASCVNAMEGKKLAQDVRAKGYLECSALSNRGVQQVFECAVRTAVNQARRRNRRRLFSINECKIF
binds |  |  | no binding | binds | V5-tagged RhoF (protein, UniProt Q9HBH0 1-211) MDAPGALAQTAAPGPGRKELKIVIVGDGGCGKTSLLMVYSQGSFPEHYAPSVFEKYTASVTVGSKEVTLNLYDTAGQEDYDRLRPLSYQNTHLVLICYDVMNPTSYDNVLIKWFPEVTHFCRGIPMVLIGCKTDLRKDKEQLRKLRAAQLEPITYMQGLSACEQIRAALYLECSAKFRENVEDVFREAAKVALSALKKAQRQKKRRLCLLL
